{
  "source": "PubChem BioAssay AID2546",
  "about": "(National Center for Advancing Translational Sciences (NCATS), 2010)",
  "note": "“And” between values parts separate entries of the source, which are not always exact repeats. Identical values can stand only once. Out of some 310,000 compounds screened, about 11,000 (3.5%) were called active. This list was built around the results that the source calls inconclusive (neither active nor inactive); the mix of calls is not that of the screen. Calls come from the whole dose curve; as a rule, active = well fitted inhibition curve with a large enough effect; inconclusive = small, poorly fitted or top-dose-only effect, or effect the other way; inactive = flat fitted curve, though single readings scatter. Potencies beside an inconclusive call are fits to weak or partial responses and may not hold up. Potency is the fitted concentration of half-maximal effect; tags give direction and shape of the fitted curve.",
  "data": [
    {"test": "VP16 counterscreen qHTS for inhibitors of ROR gamma transcriptional activity;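 note: Gal4-VP16 expression switched on by copper sulfate through the metallothionein promoter; nearly all actives have a fitted effect of over 50% in size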", "conditions": "Drosophila S2 Gal4-VP16 UAS-luciferase, luminescence, 20 h; series mostly up to 53.6 µM", "values": [
      {"smiles": "CN(C)Cc1nc2c(c(=O)[nH]1)C(C)(C)Cc1ccccc1-2", "Potency": "inconclusive: 6.31 µM [inhibitor, single point]"},
      {"smiles": "Cc1cc(C)nc(-n2nc(C)cc2NC(=O)CN2CCCC(C)C2)n1", "note": "(centres undefined)", "Potency": "active: 5.62 µM"},
      {"smiles": "O=C(c1ccc(Cl)c([N+](=O)[O-])c1)N1CCCc2ccccc21", "Potency": "inactive"},
      {"smiles": "CCOC(=O)C1=C(N)N2C(=O)C(C)SC2=C(C(=O)OCC)C1c1ccccc1", "note": "(centres undefined)", "Potency": "active: 12.6 µM"},
      {"smiles": "O=[N+]([O-])c1ccc(O)c(/C=N/Nc2nc3ccccc3[nH]2)c1", "Potency": "active: 5.62 µM"},
      {"smiles": "S=C(NCc1ccco1)Nc1ccc(Br)cn1", "Potency": "active: 3.55 µM"},
      {"smiles": "CCC(=O)Nc1ccc(Nc2ccccc2)cc1", "Potency": "inconclusive: 22.4 µM [activator, partial curve, poor fit]"},
      {"smiles": "COc1cccc(C(C)NC(=O)Nc2ccccc2Cl)c1", "note": "(centres undefined)", "Potency": "inconclusive: 6.31 µM [inhibitor, single point]"},
      {"smiles": "COc1ccc(N2CCN(C(=O)c3cccc(N4C(=O)C5C6C=CC(C6)C5C4=O)c3)CC2)cc1", "note": "(centres undefined)", "Potency": "inconclusive: 3.16 µM [inhibitor, single point]"},
      {"smiles": "Cc1ccccc1-c1nnc(-c2ccc(Cl)cc2)o1", "Potency": "inactive"},
      {"smiles": "Cc1cc(=O)n2nc(N3CCCC(C(=O)NCCc4ccc(Cl)cc4)C3)sc2n1", "note": "(centres undefined)", "Potency": "inactive"},
      {"smiles": "Cc1cc(N2CCN(c3ccc(C(F)(F)F)cc3[N+](=O)[O-])CC2)c2ccccc2n1", "Potency": "inconclusive: 28.2 µM [inhibitor, single point]"},
      {"smiles": "Clc1ccc(CSc2nnc(-c3ccccn3)n2Cc2ccco2)c(Cl)c1", "Potency": "inconclusive: 35.5 µM [inhibitor, single point]"},
      {"smiles": "CCc1ccc(-c2cn(-c3nc(C)cc(C)n3)c(=N)o2)cc1", "Potency": "inconclusive: 35.5 µM [inhibitor, single point]"},
      {"smiles": "COc1ccc2oc(C(=O)Nc3nc4ccccc4[nH]3)c(C)c2c1", "Potency": "active: 2.82 µM"},
      {"smiles": "CCOC(=O)c1cnc(-n2nc(C)cc2C)nc1Nc1ccccc1OC", "Potency": "active: 2.24 µM"},
      {"smiles": "CC(C)(C)[C@]1(O)CCN2C[C@H]3c4ccccc4CCc4cccc(c43)[C@@H]2C1", "Potency": "inconclusive: 35.5 µM [inhibitor, single point]"},
      {"smiles": "C=C(C)CNC(=S)N/N=C/C1=CCC2CC1C2(C)C", "note": "(centres undefined)", "Potency": "active: 1.58 µM"},
      {"smiles": "CCCC(=O)Nc1ccc(C(=O)/C=C/c2ccc(SC)cc2)cc1", "Potency": "inactive"},
      {"smiles": "Cc1cccc(Oc2ccc(S(=O)(=O)N3CCCCC3)cc2N)c1", "Potency": "inactive"},
      {"smiles": "Cc1cccn2c(=O)c3cc(S(=O)(=O)c4ccccc4)c(=N)n(Cc4ccco4)c3nc12", "Potency": "inconclusive: 35.5 µM [inhibitor, single point]"},
      {"smiles": "O=C(CN1C(=O)COc2ccccc21)NNC(=O)Nc1ccccc1F", "Potency": "inactive"},
      {"smiles": "COc1ccc(OC)c(NC(=S)NCc2cccs2)c1", "Potency": "inconclusive: 35.5 µM [inhibitor, single point]"},
      {"smiles": "COc1ccc(/C=C2/CCc3ccccc3C2=O)cc1OC", "Potency": "inconclusive: 5.62 µM [activator, single point]"},
      {"smiles": "O=S(=O)(c1cccs1)N1CCN(CC(O)COc2cc(Cl)ccc2Cl)CC1", "note": "(centres undefined)", "Potency": "active: 17.8 µM"},
      {"smiles": "Cc1cc(NC(=O)c2c(-c3c(Cl)cccc3Cl)noc2C)n(C)n1", "Potency": "inactive"},
      {"smiles": "CCCCC(=O)Nc1ccc(NC(=S)NC(=O)CC(C)C)cc1OC", "Potency": "inconclusive: 20 µM [inhibitor, partial curve]"},
      {"smiles": "CCCCCCCCCn1ccc(=N)cc1", "Potency": "active: 1.58 µM"},
      {"smiles": "O=C(NC(=S)N(CCO)Cc1ccccc1)c1cc(Br)ccc1Cl", "Potency": "active: 1.78 µM"},
      {"smiles": "COC(=O)COc1ccc(/C=N/NC(=O)c2ccc(N(Cc3ccccc3)S(C)(=O)=O)cc2)cc1", "Potency": "inconclusive: 35.5 µM [inhibitor, single point]"},
      {"smiles": "O=c1[nH][nH]c(-c2ccccc2O)c1C(C[N+](=O)[O-])c1ccccc1", "note": "(centres undefined)", "Potency": "inconclusive: 1 µM [inhibitor, single point]"},
      {"smiles": "COc1ccc(/C=N\\NC(=O)CCN2CCN(c3ccccc3)CC2)cc1OC", "Potency": "inactive"},
      {"smiles": "CCc1ccc2nc(N3C(=O)C(O)=C(C(=O)c4ccco4)C3c3cccs3)sc2c1", "note": "(centres undefined)", "Potency": "inconclusive: 35.5 µM [inhibitor, single point]"},
      {"smiles": "Cc1ccc(NCC(=O)Nc2cccc(F)c2)cc1S(=O)(=O)N1CCCCCC1", "Potency": "inconclusive: 35.5 µM [inhibitor, single point]"},
      {"smiles": "Cc1cc(=O)[nH]c(-n2nc(C)c(Oc3ccccc3O)c2C)n1", "Potency": "active: 11.2 µM"},
      {"smiles": "CCOC(=O)c1ccc(NC(c2ccc(N(C)C)cc2)P(=O)(OC(C)C)OC(C)C)cc1", "note": "(centres undefined)", "Potency": "inactive"},
      {"smiles": "Cc1[nH]c(=S)sc1Cc1ccc(Cl)c(Cl)c1", "Potency": "inconclusive: 35.5 µM [inhibitor, single point]"},
      {"smiles": "COc1ccc(NC(=O)CN2CCN(S(=O)(=O)c3ccc(Cl)cc3)CC2)cc1Cl", "Potency": "inconclusive: 35.5 µM [inhibitor, single point]"},
      {"smiles": "COc1ccc2c(c1OC)C(=O)N(c1cccc(C)c1)C2", "Potency": "inconclusive: 25.1 µM [inhibitor, single point]"},
      {"smiles": "Cc1c(Cc2ccccc2)c(=O)n2c([nH]c3ccccc32)c1C#N", "Potency": "inconclusive: 31.6 µM [inhibitor, single point]"},
      {"smiles": "COc1ccc(/C=N/Nc2ncc(-c3ccccc3)cn2)c(OC)c1", "Potency": "inconclusive: 35.5 µM [inhibitor, single point]"},
      {"smiles": "COc1ccc(C2=C(CN(C)C)C(c3ccccc3)c3ccccc3O2)cc1", "note": "(centres undefined)", "Potency": "inconclusive: 15.8 µM [inhibitor, single point] and inconclusive: 22.4 µM [inhibitor, single point]"},
      {"smiles": "COC(=O)c1cc(NC(=O)c2cc3ccccc3o2)cc(C(=O)OC)c1", "Potency": "inconclusive: 12.6 µM [inhibitor, single point]"},
      {"smiles": "O=C(Nc1nnc(COc2ccccc2)s1)C1CCN(S(=O)(=O)c2ccc(Cl)cc2)CC1", "Potency": "inconclusive: 11.2 µM [inhibitor, single point]"},
      {"smiles": "CSc1ccccc1C(=O)Nc1cccc([N+](=O)[O-])c1C", "Potency": "inactive"},
      {"smiles": "COCCC(=O)N1CCC(Oc2ccc(C(=O)N3CCCCCC3)cc2)CC1", "Potency": "inactive"},
      {"smiles": "Fc1ccc(N/N=C/C=C/c2ccccc2)c(F)c1", "Potency": "inconclusive: 35.5 µM [inhibitor, single point]"},
      {"smiles": "COC(=O)[C@H]1O[C@@H](c2cc(OC)c(C)c(OC)c2OCc2ccccc2)[C@H](C)[C@@H]2O[C@]12C", "Potency": "inactive"},
      {"smiles": "CC1Cc2ccccc2N1NC(=O)c1ccc(Cl)c(S(N)(=O)=O)c1", "note": "(centres undefined)", "Potency": "inactive"},
      {"smiles": "Cc1cc(C)cc(N2C(=O)CCN(Cc3ccccc3)C2=O)c1", "Potency": "inactive"},
      {"smiles": "O=C(/C=C/c1cccs1)Nc1nncs1", "Potency": "inactive"},
      {"smiles": "CCOc1ccccc1C1CC(=O)Nc2cc(C)c(C)cc21", "note": "(centres undefined)", "Potency": "inactive"},
      {"smiles": "O=C(NCCc1ccccc1)C(c1cccs1)N(C(=O)CCl)c1ccc(Cl)cc1", "note": "(centres undefined)", "Potency": "inconclusive: 35.5 µM [inhibitor, single point]"},
      {"smiles": "CCOc1ccc(-c2c(C(=O)N/N=C/c3ccco3)nnn2-c2nonc2N)cc1", "Potency": "inconclusive: 35.5 µM [inhibitor, single point]"},
      {"smiles": "NS(=O)(=O)c1ccc(CNc2ncnc3sccc23)cc1", "Potency": "inactive"},
      {"smiles": "Cc1cccc(NC(=S)N/N=C/c2c[nH]c3ccccc23)c1", "Potency": "active: 5.62 µM"},
      {"smiles": "O=C(Nc1ccc(NC(=O)c2cccs2)cn1)c1ccccc1", "Potency": "inconclusive: 0.501 µM [activator, full curve, poor fit]"},
      {"smiles": "COc1ccc(CCNC2=CC(=O)CC(C)(C)C2)cc1", "Potency": "inconclusive: 35.5 µM [inhibitor, single point]"},
      {"smiles": "CCCCNC(=S)N/N=C/c1ccccc1F", "Potency": "active: 3.16 µM"},
      {"smiles": "CCOc1ccc(NS(=O)(=O)c2ccc(OCC)c3ncccc23)cc1", "Potency": "inconclusive: 17.8 µM [inhibitor, single point]"},
      {"smiles": "O=[N+]([O-])c1ccccc1S(=O)(=O)N1CCN(c2ccc(F)cc2)CC1", "Potency": "inactive"},
      {"smiles": "COc1ccc(-c2nnc(NC(=O)c3ccc(S(=O)(=O)N4CCc5ccccc5C4)cc3)o2)cc1", "Potency": "active: 0.251 µM"},
      {"smiles": "C/C(CC(=O)Nc1cccc(F)c1)=N\\NC(=O)C(=O)NC1CCCCC1", "Potency": "inconclusive: 35.5 µM [inhibitor, single point]"},
      {"smiles": "COCCNC(=S)N1CCc2cc(OC)c(OC)cc2C1COc1ccc(C(C)C)cc1", "note": "(centres undefined)", "Potency": "inconclusive: 1 µM [inhibitor, single point]"},
      {"smiles": "CC1=C(/C=C/C(C)=C/C=C/C(C)=C\\C=O)C(C)(C)CCC1", "Potency": "inconclusive: 35.5 µM [inhibitor, single point]"},
      {"smiles": "C=CCOc1ccc2ccccc2c1CNn1c(C)n[nH]c1=S", "Potency": "inconclusive: 31.6 µM [inhibitor, single point]"},
      {"smiles": "O=C(Nc1cccc(-c2nc3ccccc3[nH]2)c1)c1ccc(C(=O)Nc2cccc(-c3nc4ccccc4[nH]3)c2)cc1", "Potency": "active: 2.82 µM"},
      {"smiles": "COc1ccc2[nH]c(=O)c(CN(CC3CCCO3)C(=O)Nc3ccccc3)cc2c1", "note": "(centres undefined)", "Potency": "inconclusive: 35.5 µM [inhibitor, single point]"},
      {"smiles": "CC1CCN(S(=O)(=O)c2ccc(C(=O)Nc3nnc(C4CC4)o3)cc2)CC1", "Potency": "active: 0.316 µM"},
      {"smiles": "COc1cccc2oc3ccc(C#Cc4ccccn4)cc3c(=O)c12", "Potency": "inconclusive: 20 µM [inhibitor, partial curve]"},
      {"smiles": "CCN(Cc1ccncc1)C(=O)c1cc(COc2c(C)cccc2C)on1", "Potency": "inconclusive: 11.2 µM [activator, partial curve]"},
      {"smiles": "Cc1cccc(C)c1OCC(O)CNS(=O)(=O)c1ccccc1C(=O)N1CCCCC1", "note": "(centres undefined)", "Potency": "inactive"},
      {"smiles": "CCc1ccc(-n2nc3cc(C)c(N)cc3n2)cc1", "Potency": "inconclusive: 14.1 µM [inhibitor, single point]"},
      {"smiles": "C/C(O)=C(\\C#N)c1nc2ccccc2[nH]1", "Potency": "active: 14.1 µM"}
    ]}
  ]
}
